About 16,000 (7.3%) of roughly 220,000 compounds were called active. Inconclusive means that the source gave no clear call. Such entries were picked first, then a sample of the others. The call rests on the fitted dose curve; in most records, active means well fitted inhibition curve with a large enough effect (not every such curve was filed as active); inconclusive means small, poorly fitted or top-dose-only effect, or another doubt; inactive means no such curve, though single readings can be large or run the other way. Potencies of inconclusive entries are left out as doubtful fits.
Molecular target: Aldehyde dehydrogenase 1A1 (Homo sapiens) (UniProt P00352)
Experiment: qHTS Assay for Inhibitors of Aldehyde Dehydrogenase 1 (ALDH1A1);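 on activity, negative = inhibition: plate controls were no enzyme wells and a reference inhibitor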
Conditions: Purified ALDH1A1, NADH fluorescence, propionaldehyde substrate; series mostly up to 75.3 µM; activity, negative = inhibition: at the top concentration
Potency means the concentration at half of the fitted maximal effect; tags describe the fitted curve by direction and shape.

Chain of UniProt P00352 (P00352 whole entry, looked up): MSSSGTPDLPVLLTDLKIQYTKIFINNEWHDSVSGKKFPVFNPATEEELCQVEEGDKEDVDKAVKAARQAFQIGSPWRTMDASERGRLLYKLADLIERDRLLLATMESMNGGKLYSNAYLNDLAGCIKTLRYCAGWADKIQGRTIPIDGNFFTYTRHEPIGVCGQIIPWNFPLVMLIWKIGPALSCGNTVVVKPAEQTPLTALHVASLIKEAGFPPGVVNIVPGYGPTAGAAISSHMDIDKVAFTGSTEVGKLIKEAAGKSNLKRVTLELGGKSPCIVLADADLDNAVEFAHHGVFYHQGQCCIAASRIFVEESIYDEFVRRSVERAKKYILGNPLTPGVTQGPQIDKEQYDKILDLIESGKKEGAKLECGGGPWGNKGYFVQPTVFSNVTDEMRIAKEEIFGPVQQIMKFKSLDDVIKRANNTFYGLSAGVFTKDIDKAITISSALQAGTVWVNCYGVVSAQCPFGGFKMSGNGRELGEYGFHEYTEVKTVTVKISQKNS

Question: How did the Potency turn out when `CC(=O)c1cccc(S(=O)(=O)N(C)C2CCN(C)CC2)c1` was run?
Answer: inconclusive [inhibitor, single point]

Question: With `Cc1ccc(NC2=C(NC(=O)c3ccccc3)C(=O)c3ccccc3C2=O)cc1Cl` as the molecule, how does the Potency read?
Answer: active: 20 µM

Question: For `OCCn1nc2c3ccccc3nc-2n(-c2ccccc2)c1=S`, which Potency is on record?
Answer: inconclusive [inhibitor, single point]

Question: How did the Potency turn out when `NS(=O)(=O)c1cccc(NC(=O)CN2CCc3ccccc32)c1` was run?
Answer: active: 7.94 µM

Question: For `Cc1ccc(S(=O)(=O)N=Nc2c(O)[nH]c3ccccc23)cc1`, which Potency is on record?
Answer: inconclusive [inhibitor, single point]

Question: For `COc1ccc(-c2csc(N3CCC(C(N)=O)(N4CCCCC4)CC3)n2)cc1`, which Potency is on record?
Answer: inconclusive [inhibitor, single point]

Question: Which “activity, negative = inhibition” value does the source give for `O=C(CN1CCN(S(=O)(=O)/C=C/c2ccccc2)CC1)Nc1ccc(N2CCOCC2)cc1` here?
Answer: inactive: 7.06%

Question: For `Cc1ccc(NC(=O)N/C=C/c2ccco2)cc1C`, which Potency is on record?
Answer: inconclusive [inhibitor, single point]

Question: Which “activity, negative = inhibition” value does the source give for `CCOC(=O)c1ccc(NC(=S)N2CCSC2c2ccc(Br)cc2)cc1` (stereo not drawn) here?
Answer: inactive: -21.7%

Question: `C/C=C/c1ccc(OCCCCNCc2ccco2)c(OC)c1` was tested. Which Potency did it give?
Answer: inconclusive [inhibitor, partial curve]

Question: `CCn1c(SCC(=O)N2CCCc3ccccc32)nc2cccnc21` was tested. Which Potency did it give?
Answer: inconclusive [inhibitor, single point]

Question: `CCOC(=O)c1[nH]cc(-c2ccccc2)c1N1CCOCC1` was tested. Which Potency did it give?
Answer: active: 2.82 µM

Question: For `Cc1ccc(NC(=S)N(CCCN2CCC(C)CC2)Cc2ccco2)cc1`, which “activity, negative = inhibition” value is on record?
Answer: inactive: -7.69%

Question: `COc1ncccc1-c1nnn(-c2ccc(Cl)nc2)n1` was tested. Which Potency did it give?
Answer: inconclusive [inhibitor, single point]

Question: How did the Potency turn out when `O=C(O)CCCCCNc1nc(=S)[nH]c2ccccc12` was run?
Answer: inconclusive [inhibitor, single point]

Question: For `CCC(C)(C)n1nnnc1C(c1cc2ccc(C)cc2[nH]c1=O)N(Cc1cccnc1)Cc1ccco1` (stereo not drawn), which Potency is on record?
Answer: inconclusive [inhibitor, single point]

Question: How did the Potency turn out when `CCOC(=O)C1=C(C)NC2=C(C(=O)CCC2)C1c1coc2ccccc2c1=O` (stereo not drawn) was run?
Answer: inconclusive [inhibitor, partial curve]

Question: `CC(=O)Nc1ccn(-c2ccccc2)n1` was tested. Which “activity, negative = inhibition” value did it give?
Answer: inactive: 4.04%

Question: How did the Potency turn out when `c1ccc2c(c1)oc1c(NCCCN3CCOCC3)ncnc12` was run?
Answer: inconclusive [inhibitor, single point]

Question: Which Potency does the source give for `Cc1cc(NC(=O)c2ccc3c(c2)C(=O)N(CCC(C)C)C3=O)no1` here?
Answer: inconclusive [inhibitor, full curve, poor fit]

Question: Which Potency does the source give for `Cc1cccc(CNc2nc(-c3c(C)noc3C)nc3ccccc23)c1` here?
Answer: inconclusive [inhibitor, single point]

Question: Which “activity, negative = inhibition” value does the source give for `CSc1nnnn1-c1ccc(C(=O)O)cc1` here?
Answer: inactive: -0.497%

Question: How did the Potency turn out when `Cc1ccc(NC(=O)CCCN2C(=O)c3cccc4cccc(c34)C2=O)cc1` was run?
Answer: inconclusive [inhibitor, single point]

Question: Which Potency does the source give for `CCCn1nnc(NC(=O)c2ccc(Cl)cc2Cl)n1` here?
Answer: inconclusive [inhibitor, single point]

Question: How did the Potency turn out when `NNC(=O)c1cc2ccccc2[nH]1` was run?
Answer: inconclusive [inhibitor, single point]

Question: `Cc1sc(-c2ccncc2)nc1OC(=O)c1ccc(Cl)cc1` was tested. Which “activity, negative = inhibition” value did it give?
Answer: inactive: 2.22%

Question: `Cc1ccc(OCc2nnc(SCCN3CCOCC3)n2C)cc1` was tested. Which “activity, negative = inhibition” value did it give?
Answer: inactive: -10.5%

Question: With `COc1cc(NC(=S)Nc2cccc(C)n2)cc(OC)c1OC` as the molecule, how does the “activity, negative = inhibition” value read?
Answer: inactive: 5.19%

Question: `COc1ccccc1N1CCN(C(=O)CCc2c[nH]c3ccccc23)CC1` was tested. Which “activity, negative = inhibition” value did it give?
Answer: inactive: 7.77%

Question: For `O=C(OCn1ncc(Cl)c(Cl)c1=O)c1ccc(F)cc1`, which Potency is on record?
Answer: active: 1.12 µM

Question: For `O=C(COC(=O)c1cccnc1Cl)c1ccc(OC(F)F)cc1`, which “activity, negative = inhibition” value is on record?
Answer: inactive: 4.79%

Question: For `C[C@H]1Cc2c(COc3ccccc3)nc3c(c2CO1)CN(C(=O)C1CC1)CC3`, which activity, negative = inhibition is on record?
Answer: inactive: 2.33% [at 13.5 µM]

Question: How did the Potency turn out when `CCOC(=O)c1sc(=S)n(-c2ccc3c(c2)OCO3)c1N` was run?
Answer: active: 10 µM

Question: With `O=C(Nc1ccc(Cl)cc1)c1cc(S(=O)(=O)N2CCOCC2)cs1` as the molecule, how does the “activity, negative = inhibition” value read?
Answer: inactive: -1.13%

Question: How did the Potency turn out when `COC(=O)c1ccccc1NC(=O)CSc1nnnn1-c1ccc(C)cc1C` was run?
Answer: inconclusive [inhibitor, single point]

Question: With `O=C(C1CCCN(S(=O)(=O)c2cccc3nonc23)C1)N1CCN(c2ccccc2Cl)CC1` (stereo not drawn) as the molecule, how does the Potency read?
Answer: inconclusive [inhibitor, single point]

Question: Which Potency does the source give for `O=C(c1nc2ccccn2c1CN1CCN(c2ccccc2O)CC1)N1CCCC1` here?
Answer: inconclusive [inhibitor, single point]

Question: Which Potency does the source give for `CCOc1ccc(OCC)c(NC(=O)CSCC(=O)O)c1` here?
Answer: inconclusive [inhibitor, single point]

Question: Which Potency does the source give for `Cc1ccc(Nc2nnc(C3C(=O)N(C)C4(C)CC3c3cc(Br)ccc3O4)s2)cc1` (stereo not drawn) here?
Answer: inconclusive [inhibitor, partial curve]

Question: `Cc1cc(=O)[nH]c(SCc2nnc(-c3ccccc3)o2)n1` was tested. Which “activity, negative = inhibition” value did it give?
Answer: inactive: -3.37%

Question: `O=C(/C=C\C=C/c1ccc2c(c1)OCO2)N1CCCCC1` was tested. Which Potency did it give?
Answer: inconclusive [inhibitor, partial curve]

Question: For `CN(C)c1ncc2nc(CCc3ccccc3)c(=O)n(C3CC3)c2n1`, which Potency is on record?
Answer: inconclusive [inhibitor, partial curve]

Question: For `CC(=O)NC(Cc1ccccc1)C(=O)NC1CCN(c2ncccc2[N+](=O)[O-])CC1` (stereo not drawn), which Potency is on record?
Answer: inconclusive [inhibitor, single point]

Question: With `O=C(CN1C(=O)c2cccc3cccc1c23)Nc1ccccc1` as the molecule, how does the Potency read?
Answer: inconclusive [inhibitor, partial curve]

Question: How did the Potency turn out when `O=C1/C(=C/c2ccc([N+](=O)[O-])cc2)C=C(c2ccccc2)N1c1ccc(O)cc1` was run?
Answer: inconclusive [inhibitor, partial curve]

Question: Which Potency does the source give for `Cc1ccccc1-n1c(N)c(C(=O)Nc2ccc(F)cc2)sc1=S` here?
Answer: active: 20 µM

Question: With `CCOC(=O)C1CCN(C(=O)Cc2c(C(=O)O)n(C)c3ccccc23)CC1` as the molecule, how does the Potency read?
Answer: inconclusive [inhibitor, single point]

Question: For `Cc1ccccc1C(=O)NC(=S)Nc1ccc(Oc2ccc(Cl)cc2)cc1`, which Potency is on record?
Answer: inconclusive [inhibitor, partial curve, poor fit]

Question: `COc1ccc(C(=O)Nc2nnc(-c3cccs3)s2)cc1` was tested. Which Potency did it give?
Answer: inconclusive [inhibitor, partial curve]

Question: How did the Potency turn out when `Cc1c(C(=O)NC(C)c2ccccc2)c(-c2ccccc2)nn1-c1ccccc1` (stereo not drawn) was run?
Answer: inconclusive [inhibitor, full curve]

Question: For `COC(=O)CCS(=O)(=O)c1ccc(NC(C)=O)cc1`, which “activity, negative = inhibition” value is on record?
Answer: inactive: 4.46%

Question: How did the Potency turn out when `O=C1OCCN1C(=O)[C@H]1[C@H](c2ccc(Cl)cc2)C(c2cccc(Cl)c2)=NN1c1ccc(Br)cc1` was run?
Answer: inconclusive [inhibitor, partial curve]

Question: With `O=C1c2ccccc2S(=O)(=O)N1CC1CC(c2ccccc2Cl)=NO1` (stereo not drawn) as the molecule, how does the Potency read?
Answer: active: 12.6 µM

Question: For `CCOC(=O)C1(Cc2ccccc2C)CCCN(C(=O)CCc2cccnc2)C1` (stereo not drawn), which “activity, negative = inhibition” value is on record?
Answer: inactive: 4.6%

Question: Which “activity, negative = inhibition” value does the source give for `CCCCSc1cc(=O)[nH]c(N)n1` here?
Answer: inactive: 1.6%

Question: How did the Potency turn out when `Cc1[nH]c2ccc(Cl)cc2c(=O)c1CN1CCCC1` was run?
Answer: inconclusive [inhibitor, single point]

Question: For `O=C1CCC(c2ccccc2)(C2CCN(Cc3ccccc3)CC2)C(=O)N1` (stereo not drawn), which “activity, negative = inhibition” value is on record?
Answer: inactive: 0.722%

Question: With `CCn1c(CNc2ccc(F)cc2)nnc1SCC(=O)N1CCCc2ccccc21` as the molecule, how does the Potency read?
Answer: inconclusive [inhibitor, single point]

Question: `CCN(CC)C(=S)SCC(=O)c1ccc(Br)cc1` was tested. Which Potency did it give?
Answer: active: 8.91 µM

Question: `Cn1c(=O)c(-c2cccs2)nc2cnc(Oc3ccccc3)nc21` was tested. Which Potency did it give?
Answer: inconclusive [inhibitor, partial curve]

Question: `CC(C)C(=O)NC(=S)Nc1ccccc1C(F)(F)F` was tested. Which Potency did it give?
Answer: inconclusive [inhibitor, single point]

Question: With `Cc1ccc(C(=O)NCc2n[nH]c(=S)n2-c2ccccc2)cc1[N+](=O)[O-]` as the molecule, how does the Potency read?
Answer: inconclusive [inhibitor, partial curve, poor fit]

Question: Which “activity, negative = inhibition” value does the source give for `CCOC(=O)c1ccc(-c2cccc(C(F)(F)F)c2)nc1C` here?
Answer: inactive: 1.2%

Question: How did the Potency turn out when `CCC1CCCCN1C(=O)CN1C(=O)CSC1=O` (stereo not drawn) was run?
Answer: inconclusive [inhibitor, single point]

Question: `CCc1ccc2nc(NC(=O)c3cc(C)on3)sc2c1` was tested. Which Potency did it give?
Answer: inconclusive [inhibitor, partial curve]

Question: With `CSCCC(NC(=O)c1ccc([N+](=O)[O-])cc1Cl)C(=O)OCC(=O)C12CC3CC(CC(C3)C1)C2` (stereo not drawn) as the molecule, how does the Potency read?
Answer: inconclusive [inhibitor, partial curve]

Question: Which Potency does the source give for `CN1C(=O)c2c(sc3c2CCCC3)NC1c1ccccc1O` (stereo not drawn) here?
Answer: inconclusive [inhibitor, single point]

Question: Which Potency does the source give for `CCOc1cc(-c2cc(-c3ccc(N)cc3)nc(N)c2C#N)ccc1O` here?
Answer: inconclusive [inhibitor, partial curve]

Question: `Cc1ccsc1-c1nc(CN2C[C@@H](C)O[C@@H](C)C2)c(C)o1` was tested. Which Potency did it give?
Answer: inconclusive [inhibitor, single point]

Question: `COc1cccc(NC(=O)c2cc(C(=O)Nc3cccc(OC)c3)n(C)n2)c1` was tested. Which Potency did it give?
Answer: inconclusive [inhibitor, single point]

Question: For `COc1cccc(/C=C2\C(=O)N(c3cccc(C)c3)C(=O)c3ccccc32)c1`, which Potency is on record?
Answer: inconclusive [inhibitor, single point]

Question: For `Cn1cc(Br)c(C(=O)NC2C3CC4CC(C3)CC2C4)n1` (stereo not drawn), which “activity, negative = inhibition” value is on record?
Answer: inactive: -1.5%

Question: Which Potency does the source give for `CNc1oc(/C=C/c2ccccc2)nc1C#N` here?
Answer: inconclusive [inhibitor, partial curve]

From PubChem BioAssay AID1030 (National Center for Advancing Translational Sciences (NCATS), 2008)
